Biological target: monkey (cyno) transferrin receptor ectodomain with C-terminal myc-myc-hexahistidine tag (REGN2054) (monkey (cyno, Macaca fascicularis)) (UniProt H9EXL1)
Test: SPR Biacore, mAb captured by anti-hFc, 100 nM mfTfR-mmh, 25C

B1: 12839B anti-human TfR IgG1 monoclonal antibody (antibody, V domains shown)
VH: QVQLVESGGGVVQPGRSLRLSCAASGFPFSNYVMYWVRQAPGKGLEWVALIFFDGKKNYHADSVKGRFTITRDNSKNMLYLQMNSLRPEDAAVYYCAKIHCPNGVCYKGYYGMDVWGQGTTVTVSS
VL: [sequence of about 100 residues not given]
- 100 nM Ag Bound (RU): 11 RU

B2: 12845B anti-human TfR IgG1 monoclonal antibody (antibody, V domains shown)
VH: EVQLVESGGGLVQPGGSLRLSCAASGFTVSNYEMNWVRQAPGKGLEWVSYISSSTSNIYYADSVKGRFTISRDNAENSLYLQMNSLRVEDTAVYYCVRDGIVVVPVGRGYYYYGLDVWGQGTTVTVSS
VL: [sequence of about 100 residues not given]
- 100 nM Ag Bound (RU): 13 RU

Reference: patent US20240052051A1
